Measured values published in the supplement of paper PMC12217912.
The list shows a part of the results. The full chains were built here from the parent and the listed change. Inactive controls read about 0.05.

B1: TEV protease; numbered along this chain (parent)
chain: MGESLFKGPRDYNPISSSICHLTNESDGHTTSLYGIGFGPFIITNKHLFRRNNGTLVVQSLHGVFKVKDTTTLQQHLVDGRDMIIIRMPKDFPPFPQKLKFREPQREERICLVTTNFQTKSMSSMVSDTSCTFPSGDGIFWKHWIQTKDGQCGSPLVSTRDGFIVGIHSASNFTNTNNYFTSVPKNFMELLTNQEAQQWVSGWRLNADSVLWGGHKVFMVKPEEPFQPVKEATQL

Variants of: B1
Test: raw area under fraction-flipped curve 0-4 h after induction (AUC4h, not background-subtracted), DNA-recorder readout of cleavage of the substrate (dimensionless); higher = more cleavage of the substrate by the protease variant
Settings: temperature: 34 °C; time window: 0-4 h after rhamnose induction
Procedure: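 In vivo DNA recorder in E. coli TOP10(DE3) ΔrhaA at 34 °C. Each TEVp single-site mutant (parent TEVp 0) is paired with a single-site variant of the 7-mer TEVs (canonical ENLYFQ|S). The substrate sits between flexible linkers in a Bxb1-sfGFP-TEVs-SsrA fusion, so cleavage stabilises Bxb1 and speeds flipping of a recombination array, read by NGS. The value is the raw area under the fraction-flipped curve over 0-4 h after rhamnose induction (AUC4h), with ≥20 reads per time point. It is not background-subtracted; inactive controls average about 0.047.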
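Further: Bxb1 expression induced with 0.2% (w/v) L-rhamnose at OD600 near 0.5, cultures sampled hourly, flipped fraction per protease–substrate barcode pair counted by paired-end Illumina sequencing.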

| Variant | area with substrate ECLYFQS | area with substrate EELYFQS | area with substrate EGLYFQS | area with substrate EILYFQS | area with substrate ELLYFQS | area with substrate EMLYFQS | area with substrate EPLYFQS | area with substrate EQLYFQS | area with substrate ESLYFQS | area with substrate ETLYFQS | area with substrate EVLYFQS | area with substrate EYLYFQS | area with substrate EFLYFQS | area with substrate EHLYFQS | area with substrate ERLYFQS | area with substrate EDLYFQS | area with substrate EKLYFQS | area with substrate EWLYFQS |
| --- | --- | --- | --- | --- | --- | --- | --- | --- | --- | --- | --- | --- | --- | --- | --- | --- | --- | --- |
| Q146R | 0.115 | 0.151 | 0.0944 | 0.0963 | 0.0869 | 0.119 | 0.125 | 0.123 | 0.0154 | 0.0951 | 0.117 | 0.13 | – | – | – | – | – | – |
| D91P | 0.105 | – | – | – | – | 0.16 | – | 0.116 | 0.0975 | – | 0.0904 | – | 0.14 | 0.109 | 0.146 | – | – | – |
| V78F | 0.0936 | – | – | 0.0847 | – | – | 0.115 | – | 0.101 | – | 0.0832 | 0.0825 | 0.0965 | – | 0.104 | 0.0945 | 0.0819 | 0.0799 |
| V78S | 0.0664 | – | 0.0683 | 0.0548 | 0.0559 | 0.0853 | 0.0698 | 0.0814 | 0.0708 | 0.0677 | 0.064 | 0.0699 | 0.0867 | 0.0631 | 0.0747 | – | 0.0663 | 0.056 |
| V126M | 0.113 | 0.136 | – | 0.0991 | 0.0859 | 0.12 | – | – | 0.115 | – | 0.0831 | – | 0.117 | 0.09 | 0.127 | – | – | – |
| V126N | 0.102 | 0.131 | – | 0.111 | – | 0.12 | 0.147 | 0.131 | 0.12 | – | 0.113 | – | 0.0539 | 0.135 | 0.129 | 0.129 | 0.127 | 0.0894 |
| E107W | 0.0829 | – | 0.113 | 0.0936 | – | – | 0.14 | – | 0.122 | 0.112 | 0.0933 | – | 0.123 | – | 0.0966 | 0.125 | 0.09 | – |
| S123M | 0.122 | – | 0.0881 | – | – | – | 0.0914 | 0.133 | 0.117 | – | 0.115 | 0.121 | 0.109 | – | 0.0913 | – | 0.105 | 0.102 |
| S123A | 0.12 | 0.048 | 0.0966 | 0.102 | – | 0.0764 | – | 0.129 | 0.104 | 0.153 | 0.102 | 0.104 | 0.0808 | – | 0.109 | 0.158 | 0.11 | 0.0628 |
| E103L | 0.0625 | 0.131 | – | 0.0965 | 0.105 | 0.124 | 0.135 | 0.138 | 0.112 | – | 0.108 | – | – | 0.0941 | 0.0988 | – | 0.109 | – |
| T147N | 0.0651 | 0.0686 | 0.0677 | 0.0719 | – | 0.0462 | – | 0.0421 | 0.0675 | 0.065 | – | 0.0669 | – | 0.062 | 0.0674 | – | 0.0878 | 0.0708 |
| H143A | 0.0919 | 0.119 | 0.0807 | 0.0895 | – | 0.093 | 0.11 | 0.11 | 0.0823 | – | 0.083 | 0.103 | 0.0836 | 0.125 | 0.0707 | 0.142 | 0.105 | 0.0732 |
| I145D | 0.0514 | 0.126 | 0.0641 | 0.0572 | 0.049 | 0.0557 | – | 0.0581 | 0.0652 | 0.0648 | 0.0692 | 0.0632 | – | 0.0574 | 0.0738 | 0.0434 | 0.0523 | 0.0499 |
| C111L | 0.108 | 0.137 | – | 0.106 | 0.116 | 0.109 | – | 0.113 | 0.112 | – | 0.143 | 0.064 | 0.0998 | 0.104 | 0.0389 | – | – | 0.0863 |
| I139A | 0.0796 | 0.127 | 0.105 | 0.101 | 0.114 | – | 0.108 | 0.131 | 0.0885 | 0.0986 | 0.0586 | 0.0862 | 0.113 | 0.162 | 0.108 | – | – | – |
| F133N | 0.13 | 0.123 | 0.11 | – | 0.102 | 0.091 | – | 0.111 | 0.106 | – | 0.0856 | 0.0901 | 0.114 | – | 0.129 | – | 0.113 | 0.135 |
| Q118T | 0.121 | – | 0.0727 | 0.113 | – | – | 0.0939 | 0.102 | 0.098 | – | 0.0902 | 0.0951 | – | 0.125 | – | – | – | 0.122 |
| G162M | 0.102 | 0.102 | 0.113 | 0.0856 | 0.0818 | 0.118 | 0.129 | – | 0.0922 | – | 0.0872 | – | – | 0.0874 | 0.0936 | – | 0.0922 | 0.1 |
| T129Q | 0.0853 | 0.118 | – | 0.0975 | 0.0753 | 0.102 | – | – | 0.108 | – | 0.121 | 0.111 | – | – | 0.0728 | – | – | 0.0853 |
| R102T | 0.0492 | 0.0484 | – | 0.0599 | 0.0314 | 0.0628 | 0.0469 | 0.0536 | 0.0556 | – | 0.0535 | 0.0537 | 0.0539 | – | 0.0608 | 0.0451 | – | – |
| C152S | 0.0684 | – | – | 0.0602 | – | – | – | 0.0851 | 0.056 | 0.075 | 0.0857 | – | – | 0.0636 | 0.0708 | 0.0919 | – | 0.0932 |
| K142S | 0.073 | – | 0.0941 | 0.0844 | – | – | 0.0936 | 0.114 | 0.092 | 0.0982 | 0.0857 | – | – | – | 0.0934 | 0.114 | – | – |
| S127P | 0.0979 | 0.122 | 0.103 | 0.107 | – | – | 0.104 | 0.109 | 0.114 | – | – | 0.0404 | – | 0.128 | 0.094 | 0.141 | 0.0788 | 0.1 |
| P94I | 0.113 | – | 0.0961 | – | 0.109 | 0.168 | 0.0724 | – | 0.0933 | – | 0.0954 | 0.0744 | – | – | – | 0.135 | 0.089 | 0.083 |
| K98I | 0.0936 | – | 0.0919 | 0.0926 | 0.077 | 0.102 | 0.135 | 0.103 | 0.107 | 0.113 | 0.101 | – | – | 0.0952 | 0.102 | 0.122 | 0.127 | 0.0705 |
| P155W | 0.066 | 0.064 | 0.0688 | 0.0396 | 0.0477 | 0.0449 | 0.0233 | 0.0523 | 0.0564 | 0.0557 | 0.0515 | 0.0542 | – | – | 0.0678 | 0.0532 | 0.0498 | 0.0544 |
| P155S | 0.054 | – | 0.0932 | 0.0601 | 0.0635 | 0.0584 | 0.0726 | 0.0599 | 0.0659 | – | 0.0576 | – | – | 0.0347 | 0.0679 | 0.068 | 0.0869 | 0.0837 |
| F92H | 0.0995 | – | 0.103 | – | 0.112 | – | 0.0893 | – | – | 0.131 | 0.0943 | – | – | 0.144 | 0.109 | 0.127 | 0.096 | – |
